{"source": "PubChem BioAssay AID894", "about": "(National Center for Advancing Translational Sciences (NCATS), 2007)", "note": "The whole screen tested about 150,000 compounds, of which about 6,500 (4.3%) were called active. This list was built around the results that the source calls inconclusive (neither active nor inactive); the mix of calls is not that of the screen. Calls come from the whole dose curve; as a rule, active = well fitted inhibition curve with a large enough effect (not every such curve was filed as active); inconclusive = small, poorly fitted or top-dose-only effect, or another doubt; inactive = no such curve, though single readings can be large or run the other way. No potency is given beside an inconclusive call; the fits are too rough. % is set by controls: 0 for no effect and ±100 for the full control effect; potency is the fitted concentration of half-maximal effect; tags give direction and shape of the fitted curve."}
{"biological_target": "15-hydroxyprostaglandin dehydrogenase [NAD(+)] (Homo sapiens) (UniProt P15428)", "sequence (P15428 whole entry, looked up)": "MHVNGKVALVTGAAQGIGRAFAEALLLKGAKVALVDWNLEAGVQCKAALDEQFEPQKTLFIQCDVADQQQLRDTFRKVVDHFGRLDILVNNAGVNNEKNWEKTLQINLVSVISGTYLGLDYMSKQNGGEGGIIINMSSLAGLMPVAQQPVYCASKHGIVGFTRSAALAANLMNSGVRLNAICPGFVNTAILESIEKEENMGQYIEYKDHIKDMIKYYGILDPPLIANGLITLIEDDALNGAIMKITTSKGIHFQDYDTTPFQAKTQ", "assay": "qHTS Assay for Inhibitors of HPGD (15-Hydroxyprostaglandin Dehydrogenase)", "conditions": "purified HPGD, NADH fluorescence kinetic, PGE2 substrate; activity change, negative = inhibition: hits give low values", "how_it_was_run": "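NADH formation kinetics: reaction with 30 uM PGE2 and 1 mM NAD+ (final), 20 nM enzyme, Tris-HCl pH 8 with Tween 20, after 15 min compound preincubation at room temperature. Fluorescence change, last versus first of five reads.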"}
{"molecule": "Cn1c(=O)c2c(nc(-c3ccccc3)n2C)n(Cc2ccccc2)c1=O", "Potency": "inconclusive [inhibitor, partial curve]"}
{"molecule": "CCCCCn1c(SCC#N)nc2cc(C(=O)NCC3CCCO3)ccc2c1=O", "note": "(configuration not stated)", "Potency": "active: 2.51 µM"}
{"molecule": "CCOC(=O)c1c(C)oc2c1c(C=NCc1ccccn1)c(O)c1ccccc12", "activity change, negative = inhibition": "inactive: -20%"}
{"molecule": "Brc1ccc(/C=N/Nc2ncnc3c2cnn3Cc2ccccc2)cc1", "Potency": "inconclusive [inhibitor, partial curve]"}
{"molecule": "O=C(CSC1=NC(=O)C(Cc2ccccc2)C(=O)N1)NC1CCCCC1", "note": "(configuration not stated)", "activity change, negative = inhibition": "inactive: 1.32%"}
{"molecule": "CCOc1ccc(C(=O)N2CCC(C(=O)c3ccc4c(c3)OCCO4)CC2)cc1", "activity change, negative = inhibition": "inactive: -8.97%"}
{"molecule": "O=C(Nc1nc(-c2ccc3c(c2)OCO3)cs1)C1COc2ccccc2O1", "note": "(configuration not stated)", "activity change, negative = inhibition": "inactive: -10.8%"}
{"molecule": "COC(=O)c1sc(NC(=O)/C=C/c2ccc(C)cc2)nc1C", "Potency": "inconclusive [inhibitor, partial curve]"}
{"molecule": "O=C1CC(c2ccccc2)Cc2nc3nc(C(F)(F)F)nn3cc21", "note": "(configuration not stated)", "activity change, negative = inhibition": "inactive: -15.7%"}
{"molecule": "O=C(NCc1ccc2c(c1)OCO2)C1COc2ccccc2O1", "note": "(configuration not stated)", "Potency": "active: 4.47 µM"}
{"molecule": "CCOc1ccc(N2CCCn3c2nc2c3c(=O)n(CCc3ccccc3)c(=O)n2C)cc1", "Potency": "inconclusive [inhibitor, partial curve]"}
{"molecule": "Clc1ccccc1CSc1nnc(-c2ccco2)c(-c2ccco2)n1", "Potency": "active: 12.6 µM"}
{"molecule": "Cc1ccc(/C=N\\Nc2cn[nH]c(=O)c2Cl)cc1", "Potency": "inconclusive [inhibitor, single point]"}
{"molecule": "CCOC(=O)C1=C(O)/C(=C/c2ccc(-c3ccccc3C(=O)O)o2)SC1=Nc1ccc(OC)cc1", "Potency": "inconclusive [inhibitor, single point]"}
{"molecule": "CC1CCN(c2ccc(C(=O)Nc3ccc4c(c3)OCO4)cc2[N+](=O)[O-])CC1", "activity change, negative = inhibition": "inactive: -7.62%"}
{"molecule": "O=C(CCSc1nc(-c2ccco2)cc(C(F)(F)F)n1)N1CCCc2ccccc21", "Potency": "inconclusive [inhibitor, partial curve]"}
{"molecule": "CCOc1ccc2nc(SCC(=O)N3CCN(C(=O)c4ccco4)CC3)sc2c1", "activity change, negative = inhibition": "inactive: -23.9%"}
{"molecule": "COc1ccc(CC(=O)Nc2ccc3c(C)cc(=O)oc3c2)cc1OC", "Potency": "inconclusive [inhibitor, partial curve]"}
{"molecule": "Cc1ccc(-c2nnc(Nc3ccc4c(c3)OCO4)c3ccccc23)cc1S(=O)(=O)NC(C)C", "activity change, negative = inhibition": "inactive: -3.26%"}
{"molecule": "CCCCn1c(SCC(=O)N2CC(C)CC(C)C2)nc2cc(S(N)(=O)=O)ccc21", "note": "(configuration not stated)", "Potency": "inconclusive [inhibitor, partial curve]"}
{"molecule": "CSc1nc2nc(-c3ccccc3)cc(C(F)(F)F)n2n1", "Potency": "inconclusive [inhibitor, partial curve]"}
{"molecule": "Cc1ccc(C(=O)Nc2ccc3c(c2)CCC3)o1", "Potency": "active: 22.4 µM"}
{"molecule": "CCc1ccc(CCC(=O)O)nc1", "activity change, negative = inhibition": "inactive: -1.02%"}
{"molecule": "COc1ccc(C=NCC2COc3ccccc3O2)cc1OC", "note": "(configuration not stated)", "activity change, negative = inhibition": "inactive: -18.9%"}
{"molecule": "COc1cccc(C2C(C(=O)c3cc4ccccc4o3)=C(O)C(=O)N2c2cc(C)on2)c1OC", "note": "(configuration not stated)", "activity change, negative = inhibition": "inactive: -6.13%"}
{"molecule": "COc1cccc2sc(Nc3nc(-c4cc5ccccc5oc4=O)cs3)nc12", "Potency": "inconclusive [inhibitor, partial curve, poor fit]"}
{"molecule": "CC(C)c1cccc(C(C)C)c1NC(=O)Cn1c(=O)cnc2ccccc21", "activity change, negative = inhibition": "inactive: -13.4%"}
{"molecule": "O=C(Nc1ccc2sc3ccccc3c(=O)c2c1)c1ccccc1Cl", "Potency": "inconclusive [inhibitor, partial curve]"}
{"molecule": "CC1=C(C(=O)OC(C)C)C(c2c[nH]c3ccccc23)n2ncnc2N1", "note": "(configuration not stated)", "activity change, negative = inhibition": "inactive: 3.54%"}
{"molecule": "CN(C)c1ccc(/C=C2\\CCCCC2=O)cc1", "Potency": "inconclusive [inhibitor, single point]"}
{"molecule": "O=C(N/N=C1\\CC2CC=CC12)c1ccc(COc2ccccc2)cc1", "note": "(configuration not stated)", "Potency": "active: 22.4 µM"}
{"molecule": "Cc1cc(C)n2nc(CC(=O)NCc3ccc(F)cc3)nc2n1", "activity change, negative = inhibition": "inactive: -7.88%"}
{"molecule": "CCN(CC)S(=O)(=O)c1cc(NC(=O)CCCOc2ccc(C(C)=O)cc2)ccc1C", "activity change, negative = inhibition": "inactive: -1.29%"}
{"molecule": "CCOc1ccc(-c2[nH]ncc2-c2ccc(OC)c(OC)c2)c(O)c1", "Potency": "inconclusive [inhibitor, partial curve]"}
{"molecule": "Cc1ccccc1Cc1n[nH]c(=S)n1N", "Potency": "inconclusive [inhibitor, single point]"}
{"molecule": "Cc1ccc(C)n1-n1cnc2sc(-c3ccccc3)cc2c1=O", "Potency": "active: 28.2 µM"}
{"molecule": "O=c1[nH]c(SCc2n[nH]c(=S)n2-c2ccccc2)nc2sc3c(c12)CCC3", "Potency": "active: 12.6 µM"}
{"molecule": "CCN(CC)CC(=O)Nc1ccc(C)cc1Br", "Potency": "active: 15.8 µM"}
{"molecule": "COc1cccc(/C=N/n2nnnc2N)c1OCc1ccccc1Cl", "Potency": "inconclusive [inhibitor, partial curve]"}
{"molecule": "COc1ccc(-n2c(SCC(=O)N3CCCCC3)nnc2-c2cccnc2)cc1", "Potency": "inconclusive [inhibitor, partial curve, poor fit]"}
{"molecule": "Cc1cc(OCc2ccc(C(=O)NN=C3CCCC3)cc2)ccc1Cl", "activity change, negative = inhibition": "inactive: -18.7%"}
{"molecule": "C[C@@H]1C(c2cccc(Cl)c2)=NN(c2ccc(Br)cc2)[C@H]1C(=O)N1CCOC1=O", "Potency": "inconclusive [inhibitor, partial curve]"}
{"molecule": "CC1CC=C2C(C#N)=C(N)C(C#N)(C#N)C(c3cccs3)C2C1", "note": "(configuration not stated)", "activity change, negative = inhibition": "inactive: -10.2%"}
{"molecule": "CCOC(=O)CNc1c(-c2ccc(Cl)cc2)nc2cnccn12", "Potency": "inconclusive [inhibitor, partial curve]"}
{"molecule": "Cc1ccc2nc(-c3cc(N)cc(N)c3)oc2c1", "Potency": "inconclusive [inhibitor, partial curve]"}
{"molecule": "COc1ccc(Oc2c(C)oc3c(CN(C)C)c(O)ccc3c2=O)cc1", "Potency": "inconclusive [inhibitor, partial curve]"}
{"molecule": "Cc1c(C(=O)NCC2CCCO2)oc2ccc3c(c12)C(=O)CC(C)(C)O3", "note": "(configuration not stated)", "Potency": "inconclusive [inhibitor, partial curve]"}
